# Source: PubChem BioAssay AID686978 (National Center for Advancing Translational Sciences (NCATS), 2013)
# Hit rate of the full screen: of about 420,000 compounds, about 64,000 (15%) were called active. This list was built around the results that the source calls inconclusive (neither active nor inactive); the mix of calls is not that of the screen. Calls come from the whole dose curve; as a rule, active = well fitted inhibition curve with a large enough effect; inconclusive = small, poorly fitted or top-dose-only effect; inactive = flat fitted curve, though single readings scatter. No potency is given beside an inconclusive call; the fits are too rough.
# Test: qHTS for Inhibitors of human tyrosyl-DNA phosphodiesterase 1 (TDP1): qHTS in cells in absence of CPT; note: nearly all actives have a fitted effect of over 55% in size
# Settings: DT40 Tdp1-/- hTDP1 cells, no CPT, ATP luminescence, 48 h; activity change, negative = growth inhibition: at 46.2 µM (top of the series)
# In short: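 A cellular qHTS used chicken DT40 cells lacking endogenous Tdp1 but carrying stably transfected human TDP1. Compounds were applied without camptothecin, and cell growth kinetics were judged by ATP-dependent luminescence after ≥48 hr.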
# % is set by controls: 0 for no effect and ±100 for the full control effect; potency is the fitted concentration of half-maximal effect; tags give direction and shape of the fitted curve.
Structure (SMILES),Potency,"activity change, negative = growth inhibition"
CCS(=O)(=O)c1ccc2oc(Nc3cc(C)cc(C)c3)nc2c1,"inconclusive [inhibitor, single point]",–
CCC(=O)N1c2ccc(S(=O)(=O)NC3CCCCC3)cc2CC1C (configuration not stated),"inconclusive [inhibitor, partial curve]",–
COc1ccc2c(c1)c1c(c(=O)n(-c3ccc(F)c(Cl)c3)c(=O)n1Cc1ccccc1F)n2C,"inconclusive [inhibitor, single point]",–
COc1ccccc1NC(=O)C(C)N1CCN(C/C=C/c2ccccc2)CC1 (configuration not stated),"inconclusive [inhibitor, single point]",–
CS(=O)(=O)N1CCN(c2ccc([N+](=O)[O-])cc2C(F)(F)F)CC1,"inconclusive [inhibitor, single point]",–
O=C(COc1ccc(-n2cnnn2)cc1)NC(=O)NCc1ccccc1,–,inconclusive: -27.3% [inhibitor]
CCCCNC(=O)c1ccc2c(c1)NC(=O)C(C(C)C)N2 (configuration not stated),"inconclusive [inhibitor, single point]",–
Cn1c(NCCN2CCCC2)nc2cc(-c3ccccc3)sc2c1=O,"inconclusive [inhibitor, single point]",–
CC(=O)COc1ccc2c(c1C)O/C(=C\c1ccco1)C2=O,–,inactive: -28.2%
COc1ccc2c(c1)C(NS(=O)(=O)OCC(Cl)(Cl)Cl)CCC2 (configuration not stated),"inconclusive [inhibitor, partial curve]",–
COC(=O)c1cccc(NC(=O)CSc2nnc(COc3ccc(C#N)cc3)n2-c2ccccc2)c1,"inconclusive [inhibitor, partial curve]",–
Cc1c(C(=O)N2CCC(C)CC2)oc2ccc(S(=O)(=O)N3CCC4(CC3)OCCO4)cc12,"inconclusive [inhibitor, single point]",–
CC(=O)N(CN1C(=O)C2C3C=CC(C3)C2C1=O)c1cccc(Cl)c1 (configuration not stated),–,inactive: 17.5%
Cc1cc(-c2n[nH]c(=S)n2/N=C/c2ccc(Cl)c([N+](=O)[O-])c2)n[nH]1,"inconclusive [inhibitor, single point]",–
COc1ccccc1NC(=O)C(=O)c1cc(C)n(-c2cc(C)cc(C)c2)c1C,"inconclusive [inhibitor, single point]",–
COc1ccc(OC)c(CCNC(=O)c2nn(C)c3c2CS(=O)(=O)c2ccccc2-3)c1,"inconclusive [inhibitor, single point]",–
COc1ccc(N2CCN(C(=O)CCNS(=O)(=O)c3ccc4c(c3)CCC(=O)N4)CC2)cc1,"inconclusive [inhibitor, single point]",–
